# Experimental data: PubChem BioAssay AID504832 (National Center for Advancing Translational Sciences (NCATS), 2011)
# About 18,000 (5.8%) of roughly 310,000 compounds were called active. This list was built around the results that the source calls inconclusive (neither active nor inactive); the mix of calls is not that of the screen. Calls follow the shape of the dose curve; as a rule, active = well fitted inhibition curve with a large enough effect; inconclusive = small, poorly fitted or top-dose-only effect, or another doubt; inactive = no such curve, though single readings can be large or run the other way. No potency is given beside an inconclusive call; the fits are too rough.
# Assay: Primary qHTS for delayed death inhibitors of the malarial parasite plastid, 48 hour incubation
# Details: P. falciparum luciferase growth in erythrocytes; series mostly up to 28.7 µM
# How it was run: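 Erythrocytes infected with P. falciparum carrying an integrated firefly luciferase reporter (2% hematocrit, 0.1% parasitemia final) were exposed to compounds in RPMI 1640 with 0.5% Albumax at 37 C, 5% CO2. Growth inhibition was scored as reduced luminescence.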
# % is scaled to controls: 0 for no effect and ±100 for the full control effect; potency is read from the fitted curve at half-maximal effect; tags tell the direction and shape of the fitted curve.
Structure (SMILES),Potency,"activity change, negative = inhibition"
CC(=O)/C(=N\Nc1ccccc1)Sc1cccc2cccnc12,inactive,–
Cc1ccc(C)n1-c1nnc(N2CCC(C(=O)NCCCN3CC(C)CC(C)C3)CC2)s1 (configuration not stated),"inconclusive [inhibitor, partial curve]",–
O=C(c1ccc2c(=O)n3c(nc2c1)CCCCC3)N1CCN(c2cccc(Cl)c2)CC1,"inconclusive [inhibitor, single point]",–
Cc1ncccc1C(=O)N1CCCC(C(=O)c2ccc3c4c(cccc24)CC3)C1 (configuration not stated),"inconclusive [inhibitor, partial curve]",–
CCc1cccc(NC(=O)C2CCCN(S(=O)(=O)c3c(C)[nH]c(=O)[nH]c3=O)C2)c1 (configuration not stated),inactive,–
O=C(CNC(=O)c1ccc(Br)o1)NNC(=O)c1ccccc1O,inactive,–
Cc1cccc(CNCCc2c[nH]c3ccccc23)c1,"inconclusive [inhibitor, single point]",–
COc1ccccc1NC(=O)Nc1cc(C(C)(C)C)nn1C,"inconclusive [inhibitor, single point]",–
Cc1cc(C(=O)NP(=O)(N2CCOCC2)N2CCOCC2)c(C)n1-c1ccc(N(C)C)cc1,"inconclusive [inhibitor, single point]",–
Cc1ccc(NC(=O)CSc2ccc(-c3ccccn3)nn2)cc1,"inconclusive [inhibitor, single point]",–
CCc1ccc(/C=N/NC(=O)c2ccccn2)cc1,inactive,–
C=CCNC(=S)NC(=O)c1ccc(C)c(Br)c1,–,inactive: -13.8% [at 5.75 µM]
O=c1[nH]c2cc3c(cc2cc1CN(Cc1cccnc1)C(=S)NCc1ccco1)OCO3,"inconclusive [inhibitor, partial curve, poor fit]",–
CCn1cc(/C=C(\NC(=O)c2ccc(OC)c(OC)c2)C(=O)N2CCN(C)CC2)c2ccccc21,"inconclusive [inhibitor, single point]",–
NC(=S)N/N=C/c1ncc(C(F)(F)F)cc1Cl,active: 1.47 µM,–
CCOc1ccccc1N(C(=O)c1snc(C(N)=O)c1N)C(C(=O)NC1CCCC1)c1ccco1 (configuration not stated),"inconclusive [inhibitor, partial curve]",–
N#CCCN(C(=O)COC(=O)CCC(=O)c1ccc(F)cc1)c1ccccc1,inactive,–
C=CCNc1nc(N2CCCC2)nc2ccccc12,active: 5.22 µM,–
CCC(Oc1ccc(Cl)cc1)C(=O)N1CC(=O)Nc2ccccc21 (configuration not stated),"inconclusive [inhibitor, partial curve, poor fit]",–
CCOc1cc2[nH]c(=S)n(CCCN(CC)CC)c(=O)c2cc1OCC,"inconclusive [inhibitor, partial curve]",–
COc1ccc(-c2cc(C(=O)NNC(=O)c3csc(N4CCOCC4)n3)c3ccccc3n2)cc1,"inconclusive [inhibitor, partial curve, poor fit]",–
OCC[n+]1c2ccccc2nc2ccc(N3CCOCC3)cc21,active: 0.329 µM,–
CCc1ccccc1N(C(=O)c1snc(C(N)=O)c1N)C(C(=O)NCC1CCCO1)c1ccc(OC)c(OC)c1 (configuration not stated),active: 11.7 µM,–

Structure (SMILES),Potency,"activity change, negative = inhibition"
CC(C)c1nc(C(=O)N2CCc3c([nH]c4ccccc34)C2c2ccccn2)cs1 (configuration not stated),"inconclusive [inhibitor, partial curve, poor fit]",–
Cc1cc2oc(=O)cc(CSc3nnc(-c4cccs4)o3)c2cc1C(C)C,active: 8.28 µM,–
CC12CCC(=O)N1C(C(=O)Nc1cc(S(=O)(=O)N3CCCCCC3)ccc1OCC(F)(F)F)CS2 (configuration not stated),"inconclusive [inhibitor, partial curve]",–
COC(=O)N/N=C/c1cc(Cl)c(OCc2ccccc2F)c(OC)c1,"inconclusive [inhibitor, single point]",–
CCCCCNC(=O)Cc1ccc(S(=O)(=O)N2CCOCC2)s1,"inconclusive [inhibitor, single point]",–
COC(=O)C1=C(C)N(C)C(C)=C(C(=O)OC)C1c1ccccc1C,"inconclusive [inhibitor, partial curve]",–
CC1C(=O)N2CCCc3cc(NS(=O)(=O)c4ccc([N+](=O)[O-])cc4)cc1c32 (configuration not stated),"inconclusive [inhibitor, single point]",–
COc1ccccc1CCC(=O)Nc1cc(S(=O)(=O)N2CCCCC2)ccc1N1CCN(C)CC1,active: 11.7 µM,–
CN(C)/C=N/NC(=O)c1ccc(Cl)cc1,inactive,–
COc1ccc(N=C2SC(CC(=O)Nc3ccccc3OC)C(=O)N2Cc2ccco2)cc1 (configuration not stated),inactive,–
COc1ccc(-c2csc(NC(=S)NC(=O)c3ccc4ccccc4c3)n2)cc1OC,"inconclusive [inhibitor, single point]",–
Cc1ccc(N(C(=O)c2csnn2)C(C(=O)NC2CCCCC2)c2cccnc2)cc1C (configuration not stated),"inconclusive [inhibitor, single point]",–
CCO[C@H]1OC(C(=O)N2CCCCCCC2)=C[C@@H](c2ccccc2)[C@@H]1CCCO,inactive,–
O=C(Nc1ccc(S(=O)(=O)Nc2nccs2)cc1)c1nn(-c2ccc(F)cc2)ccc1=O,"inconclusive [inhibitor, single point]",–
Cc1cc(C)n(/N=C/c2ccccc2)c(=O)c1C#N,"inconclusive [inhibitor, single point]",–
Cc1cccc(NC(=O)NCC(c2ccco2)N2CCCCC2)c1 (configuration not stated),"inconclusive [inhibitor, partial curve, poor fit]",–
COC(=O)NC(=C(Cl)Cl)S(=O)(=O)c1ccccc1,"inconclusive [inhibitor, single point]",–
O=C(CN1CCN(C/C=C/c2ccccc2)CC1)NCc1ccc(Cl)cc1,"inconclusive [inhibitor, partial curve, poor fit]",–
COc1ccccc1NC(=O)Nc1ccc(Cc2ccncc2)cc1,inactive,–
COc1cc2c(cc1OC)C(C(=O)N1CCN(c3ccccn3)CC1)C(c1cccs1)N(C)C2=O (configuration not stated),"inconclusive [inhibitor, single point]",–
CCOC(=O)c1sc2nc(C)nc(N3CCCCC3C)c2c1C (configuration not stated),"inconclusive [inhibitor, partial curve, poor fit]",–
CCOC(=O)C1CCN(C(=S)Nc2ccc(C)cc2)CC1,"inconclusive [inhibitor, partial curve, poor fit]",–
O=C(c1ccc([N+](=O)[O-])o1)N1CCN(c2nc3c(F)cc(F)cc3s2)CC1,active: 1.04 µM,–

Structure (SMILES),Potency,"activity change, negative = inhibition"
CCC(=O)Nc1cccc(-c2ccc(N3CCC(C)CC3)nn2)c1,inactive,–
Cc1cc(O)c(-c2cc(C(=O)Nc3sc4c(c3C(=O)NCc3ccco3)CCC4)[nH]n2)cc1C,active: 1.17 µM,–
CNS(=O)(=O)c1cn(CC(=O)NCc2cccc(OC)c2)cc1S(=O)(=O)NC,inactive,–
COC(=O)C1=C(c2cccc(C#N)c2)C[C@@H]2CC[C@H]1N2C(=O)N1CCC(C)CC1,"inconclusive [inhibitor, single point]",–
COc1ccc2c(c1)O[C@@]1(CCCC[C@@H]1C)CC2=O,"inconclusive [inhibitor, partial curve, poor fit]",–
COC(=O)C1C(=O)C2=C(CC1C)NC(=O)CC2c1cccc(C)c1 (configuration not stated),"inconclusive [inhibitor, single point]",–
O=C(C(Sc1ccccc1)c1ccccc1)N1CCN(c2ccccc2F)CC1 (configuration not stated),"inconclusive [inhibitor, single point]",–
Cc1ccc(Cl)cc1N=C(N)N=C(N)N,"inconclusive [inhibitor, partial curve, poor fit]",–
O=C(CCc1ccc(S(=O)(=O)N2CCOCC2)cc1)Nc1ccc2c(c1)OCCO2,"inconclusive [inhibitor, partial curve]",–
O=c1oc2ccccc2c(Nc2ccccc2)c1CN1CCCCC1,"inconclusive [inhibitor, single point]",–
CC(OC(=O)c1ccc2noc(-c3ccccc3)c2c1)C(N)=O (configuration not stated),"inconclusive [inhibitor, full curve, poor fit]",–
Cc1ccccc1N/N=C1\CCCNC1=O,"inconclusive [inhibitor, partial curve, poor fit]",–
CC[N+](CC)(CC)CC[C@](O)(c1ccccc1)C1CCCCC1,active: 6.42 µM,–
CCC1=NN(C(=O)c2cccc([N+](=O)[O-])c2)C(O)(c2ccc(C)cc2)C1 (configuration not stated),active: 4.15 µM,–
Cc1onc(-c2c(F)cccc2Cl)c1C(=O)Nc1cccc(Cn2cccn2)c1,"inconclusive [inhibitor, single point]",–
O=C(Nc1cc(Cl)ccc1-n1cncn1)c1cncc(Br)c1,"inconclusive [inhibitor, single point]",–
Fc1ccc2nc(Nc3nc4cc5c(cc4s3)OCO5)sc2c1,inactive,–
CN(C)c1ccc(/C=N/NC(=O)C(=O)/C=C2\NC3(CCCC3)Cc3ccccc32)cc1,"inconclusive [inhibitor, single point]",–
COc1cc(NC(=O)Nc2ccc(C)cc2)cc([N+](=O)[O-])c1,"inconclusive [inhibitor, single point]",–
COc1ccc(Cc2nnc(SCC(=O)Nc3ccc(C)cc3)n(N)c2=O)cc1,"inconclusive [inhibitor, single point]",–
O=C(CN1C(=O)c2cccnc2Oc2ccc(Cl)cc21)N1CCCCCC1,"inconclusive [inhibitor, partial curve, poor fit]",–
